In PubChem BioAssay AID485344 (National Center for Advancing Translational Sciences (NCATS), 2010):
Out of some 340,000 compounds screened, about 6,900 (2%) were called active. Cut-off read from the data, not from the text of the source: active = inhibition above about 30%; inactive = below that, where a call was filed. The list shows a part of the results, in another mix than the full data. Entries without a call were filed so in the source.

biological target: D(2) dopamine receptor (Homo sapiens) (UniProt P14416); assay: HTS Assay for Allosteric Antagonists of the Human D2 Dopamine Receptor: Primary Screen for Antagonists; settings: HEK293 TREx D2 cells, calcium flux, dopamine EC80; at 10 µM; stronger effect = higher value; note: 0% is about no effect
How it was run: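 Dopamine at EC80 is the agonist stimulus; test compounds precede it by 180 s. Calcium flux read kinetically in a force-coupled, inducible HEK293 T-REx D2 cell line.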

Chain of UniProt P14416 (P14416 whole entry, looked up): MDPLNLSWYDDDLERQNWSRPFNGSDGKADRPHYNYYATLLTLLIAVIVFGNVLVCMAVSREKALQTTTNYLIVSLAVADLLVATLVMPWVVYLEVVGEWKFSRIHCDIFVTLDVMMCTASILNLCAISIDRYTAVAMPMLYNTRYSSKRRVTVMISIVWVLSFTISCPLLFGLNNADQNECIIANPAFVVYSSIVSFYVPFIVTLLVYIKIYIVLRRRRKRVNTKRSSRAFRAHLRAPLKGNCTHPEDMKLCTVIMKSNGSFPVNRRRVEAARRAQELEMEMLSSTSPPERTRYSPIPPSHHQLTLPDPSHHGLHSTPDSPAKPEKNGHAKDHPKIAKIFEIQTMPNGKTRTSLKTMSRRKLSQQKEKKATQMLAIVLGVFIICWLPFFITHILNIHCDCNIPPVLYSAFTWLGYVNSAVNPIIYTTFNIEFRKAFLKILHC

Compound | inhibition
COc1cccc(NC(=O)Cn2nc(C)c3c(C)n(-c4ccccc4)nc3c2=O)c1 | 10.5%
CCC(Sc1nnc(-c2ccc(OC)c(OC)c2)c(-c2ccc(OC)c(OC)c2)n1)C(=O)NC1CCCC1 (centres undefined) | 14.4%
Cc1cccn2c(=O)cc(CSc3nnc(NC(=O)c4ccc(F)cc4)s3)nc12 | 12.1%
CCc1ccc(NC(=O)C(Cc2ccccc2)NS(=O)(=O)c2ccc3c(c2)c(=O)n(C)c(=O)n3C)cc1 (centres undefined) | 9.65%
CCn1c(SCC(=O)Nc2ccc3c(c2)c2ccccc2n3CC)nnc1-c1ccco1 | active: 45.5%
CCCOc1ccc(Oc2nc(NCC(C)C)nc(N(C)C)n2)nn1 | 12%
CNC(=O)c1cnc2sc(N3CCCCCC3)nn2c1=O | 12.8%
Cc1ccc(NC(=O)CSc2nnc(-c3cnccn3)n2Cc2ccco2)cc1 | active: 32%
CCOc1ccc(N(CC)C(=O)CCc2nc(-c3ccccc3F)no2)cc1 | 11.3%
O=C(Cc1ccccc1)N/N=C/c1ccccc1Cl | active: 31.2%
Fc1ccc(NC(=S)NCCc2ccc(Cl)cc2)cc1 | active: 31.7%
CN(C)CCCN1C(=O)CSC1c1ccc([N+](=O)[O-])cc1 (centres undefined) | active: 34%
O=C(CCCn1c(=O)c2cccn2c2ccccc21)NCc1ccccc1Br | -14%
Cc1ccc(Nc2sc(C(=O)c3ccccc3)c(N)c2C(N)=O)cc1 | -4.33%
CC1CCN(C(=O)C2COc3ccccc3C2)CC1 (centres undefined) | 8.82%
CCc1ccccc1NC(=O)Cn1c(SCc2ccc(F)cc2)nc2ccncc21 | 3.53%
CCOc1ccccc1NC(=O)C1=C(C)Nc2ncnn2C1c1ccc(C)o1 (centres undefined) | -20.3%
COc1ccc(-c2nc(CCNC(=O)c3ccc(Br)o3)cs2)cc1 | -4.58%
O=[N+]([O-])c1cc(-c2nc(-c3ccccc3)no2)ccc1N1CCOCC1 | 9.19%
Cc1cccc(NC(=O)c2oc3ccccc3c2NC(=O)Cc2coc3ccc(C(C)C)cc23)c1 | 9.88%
CCc1cccc(CC)c1NC(=O)CCS(=O)(=O)c1ccc2c(c1)CCN2C(C)=O | 12.7%
COc1ccc(-c2nc(CNS(=O)(=O)c3cccc(F)c3)cs2)cc1 | -2.53%
O=C(Cn1cnc2onc(-c3ccc(Cl)cc3)c2c1=O)Nc1ccc(F)cc1 | -25.5%
COCCNC(=O)CN1C(=O)c2cccnc2Oc2ccc(Cl)cc21 | -4.44%
Cc1ccc(S(=O)(=O)N(CCc2ccccc2)CC(=O)Nc2ccc(Br)cc2)cc1 | -0.625%

Compound | inhibition
CCOC(=O)c1ccc(N2C(=O)c3n[nH]c(-c4ccco4)c3C2c2cccc(O)c2)cc1 (centres undefined) | 15.2%
CCOc1ccc(NC(=O)N2CCN3CCCCC3C2)cc1 (centres undefined) | 9.57%
COc1ccc(S(=O)(=O)NCc2nc3nc(C)cc(C)n3n2)cc1OC | 4.62%
COc1ccc(Nc2c3c(nc4nncn24)CCC3)cc1OC | -15%
CCN(CC)CCOC(=O)c1ccc(NC(=O)CCCN2C(=O)/C(=C\c3cccs3)SC2=S)cc1 | active: 67.7%
COc1ccc(CNC(=O)CSc2c3c(nc4ccc(Cl)cc24)CCCC3)cc1 | 7.79%
CCc1nn(CC(=O)Nc2ccc(NC(C)=O)cc2)c(=O)c2cc3sccc3n12 | 14.4%
CCCCN(CC)CCCNC(=O)Cn1ncc2c3ccccc3n(Cc3ccc(F)cc3)c2c1=O | 4.44%
Cn1c(=O)c(=O)n(C)c2cc(S(=O)(=O)N3CCN(c4ccccc4)CC3)ccc21 | -0.304%
Cc1ccc(C(=O)Nc2cccc(C(=O)OCc3cc(=O)n4nc(C5CC5)sc4n3)c2)cc1 | -26.4%
Cc1c(C(=O)Nc2ccccc2Cl)oc2ccc(S(=O)(=O)N3CCCCC3)cc12 | -1.62%
CCCn1c2ccc(F)cc2c2nnc(SCCN(CC)CC)nc21 | 18.7%
COCC(C)Nc1ncnc2c1cnn2-c1ccc(C)c(C)c1 (centres undefined) | 18.9%
CCCOc1ccc(C2CC(=O)Nc3c2c(=O)n(C)c(=O)n3C)cc1OC (centres undefined) | 8.93%
CCOc1ccc(N2CC(NC(=O)C3CC3)CC2=O)cc1 (centres undefined) | 27.1%
COc1ccc(-n2nc(C(=O)NCc3ccc(F)cc3Cl)c3c4ccccc4n(C)c3c2=O)cc1Cl | -6.76%
Cc1ccc(-c2nc(N3CCCC(C)C3)c3ccccc3n2)cc1 (centres undefined) | 2.1%
CCc1ccccc1NC(=O)CSc1nc2c(oc3ccccc32)c(=O)n1C | 18.7%
NC(=O)C1CCN(S(=O)(=O)c2ccc(N3CCCCS3(=O)=O)cc2)CC1 | 16.6%
Cc1ccc(CN2CCCn3nc(C(=O)NCCc4ccccc4Cl)cc3C2=O)cc1 | 4.54%
Cc1nn(C)c2c1c(-c1ccccc1)cc(=O)n2CC(=O)NC(C)C | 8.72%
COc1ccc(CCNCc2ccc3c(c2)n(C)c(=O)n3C)cc1OC | 1.37%
CCc1nc(SC)ncc1C(=O)N1CCN(c2cc(C)ccc2C)CC1 | -3.14%
CCOC(=O)c1c(S(=O)(=O)N2CCCC(C(=O)NCc3ccccc3OC)C2)c(C)n(C)c1C (centres undefined) | -20%
Cc1ccsc1C(=O)Nc1ccccc1N1CCOCC1 | active: 38.4%

Compound | inhibition
Cc1ccc(NC(=O)c2ccc(=O)n(Cc3ccccc3C)c2)c(C)c1 | 6.65%
Cc1ccc(CN2CCCn3nc(C(=O)NCCc4cccc(C)c4)cc3C2=O)cc1 | -5.26%
COc1ccc(N2C(=O)CSC23C(=O)N(Cc2cccc(F)c2)c2ccccc23)cc1Cl (centres undefined) | 0.155%
O=S(=O)(c1ccc2nc(N3CCN(c4ccccc4F)CC3)ccc2c1)N1CCCCC1 | 3.21%
Cc1nc(-n2nc(C)c(CCC(C)C)c2C)sc1C(=O)Nc1ccc(Cl)cc1 | -12.7%
COc1ccc2c(c1)c1c(c(=O)n(-c3cccc(C)c3)c(=O)n1Cc1cccc(Cl)c1)n2C | 0.13%
O=C(c1cc2c(=O)oc3ccccc3c2s1)N1CCN(c2ccccc2)CC1 | -2.03%
O=C(Nc1cc2c(cc1C(=O)c1ccccc1Br)OCCO2)c1cccc(Cl)c1 | 12.7%
Cc1ccc(-n2nc(C)c3c(C)cc(=O)n(CC(=O)Nc4cccc(C)c4C)c32)cc1 | -9.89%
COc1ccccc1CNc1ncnc2c1cnn2-c1ccc(C)cc1 | 19.2%
COc1ccc(-c2nn(-c3ccccc3)cc2C2NC(=O)NC(C)=C2C(=O)OC(C)C)cc1OC (centres undefined) | 7.69%
Cc1ccc(-c2noc(-c3nnn(-c4cccc(C(F)(F)F)c4)c3N)n2)cc1 | -5.63%
CSc1ccccc1NC(=O)CSc1n[nH]c(C)c1[N+](=O)[O-] | active: 40.7%
COc1ccc(OC)c(S(=O)(=O)NCC(c2cccs2)S(=O)(=O)c2ccc(F)cc2)c1 (centres undefined) | 12.2%
Cc1ccccc1NC(=O)c1sc2nc3c(cc2c1N)CN(Cc1ccccc1)CC3 | 6.49%
CCCS(=O)(=O)N1CCC(C(=O)NCCOC)CC1 | -22.6%
Cc1cc(F)ccc1NC(=O)C1CCC(CNS(=O)(=O)c2ccc3c(c2)CCCC(=O)N3)CC1 (centres undefined) | 3.45%
COc1cccc(N2CCN(C(=O)CN3CCSc4ccccc43)CC2)c1 | -9.98%
CCC(C)NC(=O)c1sc2nc(C)c(C(=O)Nc3ccc(C)cc3C)c(-c3ccc(NC(C)=O)cc3)c2c1N (centres undefined) | 13.7%
COCCNC(=O)CCCn1c(SCC(=O)NCc2ccc(C)cc2)nc2c(sc3ccccc32)c1=O | 13.5%
COCCNc1ccc2cc(S(=O)(=O)N3CCCCC3)ccc2n1 | 1.93%
Cc1ccc2nc(NC(=O)CSc3nccn3Cc3ccc(F)cc3)sc2c1 | -3.25%
O=C(O)c1ccc(Cn2c(SCc3ccc(F)cc3)nc3ccncc32)cc1 | -1.68%
CCc1ccc(NS(=O)(=O)c2[nH]ncc2C(=O)OC)cc1 | -25.2%
Cc1ccccc1Cn1c(=O)n(-c2ccc(Cl)cc2)c(=O)c2c3c(sc21)CCCC3 | -7.72%

Compound | inhibition
CC(C)NC(=O)CN1C(=O)CCn2nc(-c3cn(C)c4ccccc34)cc21 | 22.8%
COc1ccc(Cn2c(C(=O)O)c(CNCc3ccc(SC)cc3)c3ccc(OC)cc32)cc1 | -11.6%
COC(=O)c1ccccc1NC(=O)CSc1nc(C)c(Cl)c(C)c1C#N | -11.9%
Cc1ccc(-c2cc(C(=O)Oc3ccc(C#N)cc3)no2)cc1C | -0.724%
CCOC(=O)c1cccc(NC(=O)c2cnc3sc(N4CCOCC4)nn3c2=O)c1 | -0.304%
CCOCCCNC(=O)c1cc(C)nn1-c1ccccc1 | active: 36.1%
Cc1ccc2c(c1)c1c(c(=O)n(Cc3ccccc3)c(=O)n1CC(=O)Nc1ccccc1F)n2C | 8.44%
Cc1ccccc1CCNC(=O)c1ccc2c(c1)nc1n2CCCCC1 | 10.5%
Cc1cc(C)cc(NC(=O)C2CC(=O)N(c3ccccc3)C2)c1 (centres undefined) | -4.31%
O=C(Nc1sc2c(c1C(=O)NCC1CCCO1)CCCC2)c1cc(=O)c2ccccc2o1 (centres undefined) | -6.52%
O=C(CCn1c(=O)c2sccc2n(Cc2ccc(F)cc2Cl)c1=O)NCc1ccc2c(c1)OCO2 | -3.73%
Cc1ccc(-c2nc3ccccc3o2)cc1NC(=O)Cc1ccc(Cl)cc1 | 9.49%
COc1ccc(OC)c(CNCc2c(C(=O)O)n(Cc3cccc(F)c3)c3cc(OC)ccc23)c1 | -4.15%
Cc1ccc(C(c2c(O)cc(C)n(Cc3ccco3)c2=O)N2CCC(C)CC2)cc1 (centres undefined) | 9.27%
Cc1cc(-c2ccc(C)c(S(=O)(=O)NCC3CCN(Cc4ccccc4F)CC3)c2)on1 | 10.7%
O=C(Cn1ncc2c3ccccc3n(Cc3ccc(F)cc3)c2c1=O)NCc1ccccn1 | -1.99%
Cc1ccc(SCC(=O)Nc2ccc3oc(-c4cccc(Cl)c4)nc3c2)cc1 | 9.34%
CCc1ccc(NC(=O)CSc2nc(=O)n(Cc3ccncc3)c3c2CCC3)cc1 | 16.5%
Cc1cc2c(cc1S(=O)(=O)CCC(=O)N1CCCCC1C)OCC(=O)N2 (centres undefined) | -13.9%
O=C(COCc1cc(-c2ccc3c(c2)OCO3)on1)Nc1cc(C(F)(F)F)ccc1Cl | -14%
CCN1CCN(CCCNC(=O)Cn2c(-c3cccs3)cc3cc(F)ccc32)CC1 | 12.3%
CCCCN(C)CCNC(=O)CN1C(=O)CSc2ccc(S(=O)(=O)N3CCCCC3)cc21 | 19.5%
CCOC(=O)N1CCc2c(sc(NCc3cccs3)c2C(=O)Nc2ccc(OC)cc2OC)C1 | 7.01%
O=c1c(S(=O)(=O)c2ccccc2)cn(Cc2cccc(F)c2)c2cc(N3CCCC3)c(F)cc12 | 25.9%
